# Source: US20110124501A1, “Active compound combinations” (Bayer CropScience AG, priority 2009, published 2011)
# “And” between values parts separate entries of the source, which are not always exact repeats. Equal values may be shown once.
# How the values were obtained:
# Plasmopara viticola = test: Plasmopara test (grapevines)/preventive
# Experimental: Plasmopara Test (Grapevines)/Preventive
# (§1) • Solvent: 24.5 parts by weight of acetone • 24.5 parts by weight of dimethylacetamide • Emulsifier: 1 part by weight of alkylaryl polyglycol ether
# (§2) To produce a suitable preparation of active compound, 1 part by weight of active compound is mixed with the stated amounts of solvent and emulsifier, and the concentrate is diluted with water to the desired concentration.
# To test for preventive activity, young plants are sprayed with the preparation of active compound at the stated rate of application. After the spray coating has dried on, the plants are inoculated with an aqueous spore suspension of Plasmopara viticola and then remain for 1 day in an incubation cabinet at approximately 20° C. and a relative atmospheric humidity of 100%. The plant is subsequently placed for 4 days in a greenhouse at approximately 21° C. and a relative atmospheric humidity of approximately 90%. The plants are then misted and placed for 1 day in an incubation cabinet.
# The test is evaluated 6 days after the inoculation. 0% means an efficacy which corresponds to that of the untreated control, while an efficacy of 100% means that no disease is observed.
# Venturia inaequalis = test: Venturia test (apples)/preventive
# Experimental: Venturia Test (Apples)/Preventive
# as §1, §2
# To test for preventive activity, young plants are sprayed with the preparation of active compound at the stated rate of application. After the spray coating has dried on, the plants are inoculated with an aqueous conidia suspension of the causal agent of apple scab (Venturia inaequalis) and then remain for 1 day in an incubation cabinet at approximately 20° C. and a relative atmospheric humidity of 100%.
# The plants are then placed in a greenhouse at approximately 21° C. and a relative atmospheric humidity of approximately 90%.
# The test is evaluated 10 days after the inoculation. 0% means an efficacy which corresponds to that of the untreated control, while an efficacy of 100% means that no disease is observed.
# Alternaria solani = test: Alternaria test (tomatoes)/preventive
# Experimental: Alternaria Test (Tomatoes)/Preventive
# as §1, §2
# To test for preventive activity, young plants are sprayed with the preparation of active compound at the stated rate of application. After the spray coating has dried on, the plants are inoculated with an aqueous spore suspension of Alternaria solani. The plants are then placed in an incubation cabinet at approximately 20° C. and a relative atmospheric humidity of 100%.
# The test is evaluated 3 days after the inoculation. 0% means an efficacy which corresponds to that of the untreated control while an efficacy of 100% means that no disease is observed.
# Sphaerotheca fuliginea = test: Sphaerotheca test (cucumbers)/preventive
# Experimental: Sphaerotheca Test (Cucumbers)/Preventive
# as §1
# To produce a suitable preparation of active compound, 1 part by weight of active compound is mixed with the stated amounts of solvent and emulsifier, and the concentrate is diluted with water to the de-sired concentration.
# To test for protect activity, young plants are sprayed with the preparation of active compound at the stated rate of application. After the spray coating has dried on, the plants are inoculated with an aqueous spore suspension of Sphaerotheca fuliginea. The plants are then placed in a greenhouse at approximately 23° C. and a relative atmospheric humidity of approximately 70%.
# The test is evaluated 7 days after the inoculation. 0% means an efficacy which corresponds to that of the untreated control, while an efficacy of 100% means that no disease is observed.
# Botrytis cinerea = test: Botrytis test (beans)/preventive
# Experimental: Botrytis Test (Beans)/Preventive
# as §1, §2
# To test for preventive activity, young plants are sprayed with the preparation of active compound. After the spray coating has dried on, 2 small pieces of agar covered with growth of Botrytis cinerea are placed on each leaf. The inoculated plants are placed in a darkened chamber at 20° C. and a relative atmospheric humidity of 100%.
# 2 days after the inoculation, the size of the lesions on the leaves is evaluated. 0% means an efficacy which corresponds to that of the untreated control, while an efficacy of 100% means that no disease is observed.
# [1] = test system: Blumeria graminis fsp. hordei; test: Blumeria test (barley)/preventive; format: in vivo; details: application rate 1000 ppm a.i.
# Source text: After the spray coating has been dried, the plants are dusted with spores of Blumeria graminis fsp. hordei.
# Puccinia triticina = test: Puccinia triticina-test (wheat)/preventive; details: preventive, evaluated 8 days after inoculation
# Experimental: Puccinia triticina-Test (Wheat)/Preventive • Solvent: 49 parts by weight of n,n-dimethylacetamid • Emulsifier: 1 part by weight of alkylaryl polyglycol ether
# (§3) To produce a suitable preparation of active compound, 1 part by weight of active compound or active compound combination is mixed with the stated amounts of solvent and emulsifier, and the concentrate is diluted with water to the desired concentration.
# (§4) To test for preventive activity, young plants are sprayed with the preparation of active compound or active compound combination at the stated rate of application.
# After the spray coating has been dried, the plants are sprayed with a spore suspension of Puccinia triticina. The plants remain for 48 hours in an incubation cabinet at approximately 20° C. and a relative atmospheric humidity of approximately 100%.
# The plants are placed in the greenhouse at a temperature of approximately 20° C. and a relative atmospheric humidity of approximately 80%.
# The test is evaluated 8 days after the inoculation. 0% means an efficacy which corresponds to that of the untreated control, while an efficacy of 100% means that no disease is observed.
# Septoria tritici = test: Septoria tritici-test (wheat)/preventive; details: preventive, evaluated 21 days after inoculation
# Experimental: Septoria tritici-Test (Wheat)/Preventive • Solvent: 49 parts by weight of n,n-dimethylacetamid • Emulsifier: 1 part by weight of alkylaryl polyglycol ether
# as §3, §4
# After the spray coating has been dried, the plants are sprayed with a spore suspension of Septoria tritici. The plants remain for 48 hours in an incubation cabinet at approximately 20° C. and a relative atmospheric humidity of approximately 100% and afterwards for 60 hours at approximately 15° C. in a translucent incubation cabinet at a relative atmospheric humidity of approximately 100%.
# The plants are placed in the greenhouse at a temperature of approximately 15° C. and a relative atmospheric humidity of approximately 80%.
# The test is evaluated 21 days after the inoculation. 0% means an efficacy which corresponds to that of the untreated control, while an efficacy of 100% means that no disease is observed.
substance,measurement,setting,value
"(1R)-1,2,3,4-tetrahydronaphthalen-1-yl 2-(1-{[3,5-bis(difluoromethyl)-1H-pyrazol-1-yl]acetyl}piperidin-4-yl)-1,3-thiazole-4-carboxylate [(I-8)]",Efficacy in % found,Plasmopara viticola; application rate 0.2 ppm a.i.,40%
same,Efficacy in % found,Plasmopara viticola; application rate 0.4 ppm a.i.,33% and 43%
same,Efficacy in % found,Venturia inaequalis; application rate 25 ppm a.i.,0%
same,Efficacy in % found,Venturia inaequalis; application rate 50 ppm a.i.,0%
same,Efficacy in % found,Venturia inaequalis; application rate 200 ppm a.i.,15%
same,Efficacy in % found,Alternaria solani; application rate 25 ppm a.i.,0%
same,Efficacy in % found,Alternaria solani; application rate 100 ppm a.i.,15%
same,Efficacy in % found,Alternaria solani; application rate 200 ppm a.i.,0%
same,Efficacy in % found,Sphaerotheca fuliginea; application rate 25 ppm a.i.,0%
same,Efficacy in % found,Sphaerotheca fuliginea; application rate 50 ppm a.i.,30%
same,Efficacy in % found,Botrytis cinerea; application rate 50 ppm a.i.,0%
same,Efficacy in % found,Botrytis cinerea; application rate 200 ppm a.i.,0%
same,Efficacy in % found,[1],33%
same,Efficacy in % found,Puccinia triticina; 500 ppm a.i.,0%
same,Efficacy in % found,Puccinia triticina; 1000 ppm a.i.,0%
same,Efficacy in % found,Septoria tritici; 500 ppm a.i.,0%
same,Efficacy in % found,Septoria tritici; 1000 ppm a.i.,0%
